# The campaign covered roughly 100,000 compounds. About 250 (0.25%) were called active. The shares of active, inactive and inconclusive entries below differ from those in the screen. The call rests on the fitted dose curve; in most records, active means well fitted inhibition curve with a large enough effect; inconclusive means small, poorly fitted or top-dose-only effect; inactive means flat fitted curve, though single readings scatter. Potencies of inconclusive entries are left out as doubtful fits.
# Biological target: Alanine aminotransferase 2 (Homo sapiens) (UniProt Q8TD30)
# Experiment: Primary qHTS assay for inhibitors of Glutamate pyruvate transaminase 2 (GPT2); further: nearly all actives have a fitted effect of over 60% in size
# Conditions: Recombinant GPT2, coupled pyruvate oxidase/HRP Amplex Red fluorescence; activity change, negative = inhibition: at 57.7 µM (top of the series) unless noted; series mostly up to 57.7 µM
# Protocol: Assay Provider: Zhenghe John Wang Ph.D.
# Case Western Reserve University, Cleveland OH
# Glutamate pyruvate transaminase 2 (GPT2) catalyzes the reversible transamination of glutamate and pyruvate to provide a-ketoglutarate and alanine. We have optimized an assay for GPT2 enzymatic activity that couples pyruvate formation to detection of fluorescence using an established pyruvate oxidase/horseradish peroxidase / Amplex Red system.
# Screening conditions were 250uM a-KG, 2mM L-alanine, and 10ng/uL GPT2 in […] of solution; 10uL of Amplex reaction mix (outlined below) were added so that final concentrations of Amplex reagents in 50uL were 0.2mM ThPP, 0.2U/mL PO and HRP, and 50uM Amplex.
# NOTE: The volume of GPT2 in the system depends on the activity of it. The activity is different every batch. You need to test the activity before the assay. For full plate assay with automation, plate 20uL of GPT2 buffer to pin into, then add 10uL of GPT2 dilution followed immediately by 10uL of substrate dilution. 2 Columns of the plate were devoted to GPT2 buffer ([…] PH7.5, 0.0001% Tween) + 50uM AOA (known GPT2 inhibitor) to serve as a positive control. Complete the assay as normal. Amplex-red buffer: […] PH7.5, 1 mM EDTA, 1 mM MgCl2.
# 1. Combine a-KG and L-alanine at desired concentrations and incubate for at least 10 minutes at 37C. Stocks of L-alanine and a-KG are diluted in distilled water. However, the stocks were diluted in GPT2 buffer for the assay.
# 2. Prepare GPT2 dilution at the desired concentration in GPT2 buffer.
# 3. Plate 40uL of GPT2 dilution with 40uL of substrate dilution and let incubate for 30 minutes at room temperature.
# 4. Add 20uL of Amplex reaction mix prepared as follows: 1.5uL 200U/mL Horseradish Peroxidase, 200mM Thiamine Pyrophosphate, 200U/mL Pyruvate Oxidase; 7.5uL 10mM Amplex Red; 288uL Amplex Buffer.
# 5. Incubate for 30 minutes at room temperature in the dark, then image using AM_Amplex_Fluorescence on plate reader nearest the window.
# On the % scale 0 is the no-effect control and ±100 the full control effect; potency means the concentration at half of the fitted maximal effect; tags describe the fitted curve by direction and shape.
# Sequence of UniProt Q8TD30 (Q8TD30 whole entry, looked up): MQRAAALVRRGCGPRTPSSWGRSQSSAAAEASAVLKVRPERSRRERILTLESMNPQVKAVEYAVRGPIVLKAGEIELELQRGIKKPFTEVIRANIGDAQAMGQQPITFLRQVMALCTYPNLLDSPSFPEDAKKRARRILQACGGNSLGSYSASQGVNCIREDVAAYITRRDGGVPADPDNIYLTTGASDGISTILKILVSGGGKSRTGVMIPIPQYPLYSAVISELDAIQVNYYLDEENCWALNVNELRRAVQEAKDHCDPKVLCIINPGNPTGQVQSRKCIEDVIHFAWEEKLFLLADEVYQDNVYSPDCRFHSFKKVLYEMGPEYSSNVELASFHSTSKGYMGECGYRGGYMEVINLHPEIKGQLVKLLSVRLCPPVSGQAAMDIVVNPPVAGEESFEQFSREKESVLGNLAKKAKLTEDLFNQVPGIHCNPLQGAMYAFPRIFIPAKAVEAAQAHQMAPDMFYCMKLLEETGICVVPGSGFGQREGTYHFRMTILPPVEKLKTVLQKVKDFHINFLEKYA
Structure (SMILES),Potency,"activity change, negative = inhibition",outcome
CC(=O)N1C[C@H](NC(=O)c2cccc(C)c2Cl)[C@@H](C(C)C)C1,"inconclusive [inhibitor, full curve, poor fit]",–,–
COc1ccc(CN2CC(C(C)(C)C)Oc3nc(C)ccc3C2=O)cc1 (stereo not drawn),–,inactive: -4.86% [at 27.3 µM],–
COc1ccc(C(=O)NC2CCN(c3cc(-c4ccc(Cl)cc4)[nH]n3)C2)cn1 (stereo not drawn),"inconclusive [inhibitor, partial curve, poor fit]",–,–
COc1ccc(NC(=O)N2CCC(N3CC4CC(C3)[C@H]3CCCC(=O)N3C4)CC2)c(C)c1 (stereo partly drawn),"inconclusive [inhibitor, partial curve, poor fit]",–,–
CC(C)(C)NC(=O)[C@@H]1CN(Cc2cccnc2)CCN1C[C@@H](O)C[C@@H](Cc1ccccc1)C(=O)N[C@H]1c2ccccc2C[C@H]1O,"inconclusive [inhibitor, full curve, poor fit]",–,–
COc1ccc2ccc(OCc3nc(C(=O)NC(C)c4n[nH]c(C)n4)co3)cc2c1 (stereo not drawn),"inconclusive [inhibitor, single point]",–,–
C[C@@H](NC(=O)c1ccccc1)c1c(-c2ccc(F)cc2)noc1C(=O)O,–,inactive: -6.41% [at 88.5 µM],–
O=C1Nc2ccccc2OCC12CCN(Cc1ccccc1C(F)(F)F)CC2,"inconclusive [inhibitor, single point]",–,–
O=C(Cn1nc2c(cc1=O)CCCCC2)Nc1cccc(C(F)(F)F)c1,"inconclusive [inhibitor, single point]",–,–
Cc1ccccc1C(=O)N1CCC2(CC1)C(=O)N(c1cccc(F)c1)C2c1ccccc1 (stereo not drawn),"inconclusive [inhibitor, single point]",–,–
COc1ccc(C(=O)N2CCC3(CC2)NC(=O)N(Cc2ccc(Cl)cc2)C3=O)cc1,"inconclusive [inhibitor, single point]",–,–
COCCCNC(=O)C1CCCN1Cc1cccc(-c2cccc(OC)c2)c1 (stereo not drawn),–,inactive: -2.78%,–
O=C1NCCC[C@@H]1NC(=O)[C@@H]1CN(C(=O)c2ccccc2)CCN1C(=O)c1cccc(F)c1,–,–,inactive
COC(=O)C1=C(C)N=C2SC=C(CC(=O)N3CCCC(C(N)=O)C3)N2C1c1cccc(Cl)c1 (stereo not drawn),"inconclusive [inhibitor, partial curve, poor fit]",–,–
CC1(C(=O)NC2CCN(Cc3ccccc3)CC2)CCCCC(=O)N1 (stereo not drawn),–,–,inactive
Cc1oc(-c2cccc(Oc3ccccc3)c2)nc1CN1CCC(C#N)CC1,–,–,inactive
O=C(CCC(F)(F)F)N1CCC(Oc2cnc3c(ccn3-c3cncnc3)c2)CC1,"inconclusive [inhibitor, single point]",–,–

Structure (SMILES),Potency,"activity change, negative = inhibition",outcome
Cc1ccc(C(=O)N(CCCN)C(c2nc3cc(Cl)ccc3c(=O)n2Cc2ccccc2)C(C)C)cc1 (stereo not drawn),–,–,inactive
Cc1ccc([S+](=O)([O-])N2CCC(n3cc[nH]c3=O)CC2)cc1,–,–,inactive [at 88.5 µM]
Cc1ccc(C(=O)N2CCC3(CC2)NC(=O)N(c2ccc(F)cc2)N3)s1,"inconclusive [inhibitor, single point]",–,–
Cc1ccccc1N1CCN(C(=O)c2cc3cn(C4CC4)cc3s2)CC1,"inconclusive [inhibitor, full curve, poor fit]",–,–
Cc1cccc(NC(=O)N2CC3CN(C)CC(C2)O3)c1,–,–,inactive
CC1=C[C@@H](CNS(=O)(=O)c2cccc(C#N)c2)[C@H](C(C)C)C[C@H]1CC(=O)NCc1cccnc1,"inconclusive [inhibitor, partial curve, poor fit]",–,–
O=C(O)CC1COCCN1C(=O)Cn1cnnn1 (stereo not drawn),"inconclusive [inhibitor, full curve, poor fit]",–,–
O=C(NCc1ccccc1F)c1ccc2c(c1)CN(Cc1cc(F)c(F)c(F)c1)CCO2,–,–,inactive
CC(C)(C)c1cc(C(=O)N2CCN(c3ncccn3)CC2)nn2cccc12,"inconclusive [inhibitor, full curve, poor fit]",–,–
COc1ccc(OC)c(NC(=O)CC2=C3CCCCC3N(Cc3ccc(F)cc3)C2=O)c1 (stereo not drawn),–,–,inactive
COc1ccc(F)cc1Nc1cnc2ccc(N(C)Cc3cccnc3)nn12,"inconclusive [inhibitor, full curve]",–,–
COCCN1C(=O)CS(=O)(=O)C12CCN(C(=O)COc1ccc(Cl)cc1)CC2,"inconclusive [inhibitor, full curve, poor fit]",–,–
O=C(NCc1ccc(F)cc1)C1CCN(c2nccc(Nc3ccccc3F)n2)CC1,"inconclusive [inhibitor, single point]",–,–
O=C(N[C@H]1CCN2C(=O)c3cc(-c4cccs4)ccc3NC(=O)[C@H]12)c1cccs1,"inconclusive [inhibitor, single point]",–,–
CCN(CC)C1CCN(C(=O)c2cc(OC)ccc2OC2CCN(C(=O)C3CC3)CC2)C1 (stereo not drawn),"inconclusive [inhibitor, single point]",–,–
CC(C)(C)c1cc(/C=C(\C#N)C(N)=S)cc(C(C)(C)C)c1O,"inconclusive [inhibitor, single point]",–,–

# Reference: PubChem BioAssay AID1671188 (National Center for Advancing Translational Sciences (NCATS), 2021)
